The values below come from PMC4336329 (PLoS ONE, 2015).

Hit rate of the full screen: of about 310,000 compounds, about 2,200 (0.71%) showed an effect of 50% or more. Effects have a minus sign here. Some of the results follow.

This assay deals with human ether-à-go-go-related gene (hERG) potassium channel (human, UniProt Q12809). The assay can be described thus: primary screen, population patch clamp on CHO cells stably expressing hERG.
Chain of human ether-à-go-go-related gene (hERG) potassium channel (Q12809 whole entry, looked up): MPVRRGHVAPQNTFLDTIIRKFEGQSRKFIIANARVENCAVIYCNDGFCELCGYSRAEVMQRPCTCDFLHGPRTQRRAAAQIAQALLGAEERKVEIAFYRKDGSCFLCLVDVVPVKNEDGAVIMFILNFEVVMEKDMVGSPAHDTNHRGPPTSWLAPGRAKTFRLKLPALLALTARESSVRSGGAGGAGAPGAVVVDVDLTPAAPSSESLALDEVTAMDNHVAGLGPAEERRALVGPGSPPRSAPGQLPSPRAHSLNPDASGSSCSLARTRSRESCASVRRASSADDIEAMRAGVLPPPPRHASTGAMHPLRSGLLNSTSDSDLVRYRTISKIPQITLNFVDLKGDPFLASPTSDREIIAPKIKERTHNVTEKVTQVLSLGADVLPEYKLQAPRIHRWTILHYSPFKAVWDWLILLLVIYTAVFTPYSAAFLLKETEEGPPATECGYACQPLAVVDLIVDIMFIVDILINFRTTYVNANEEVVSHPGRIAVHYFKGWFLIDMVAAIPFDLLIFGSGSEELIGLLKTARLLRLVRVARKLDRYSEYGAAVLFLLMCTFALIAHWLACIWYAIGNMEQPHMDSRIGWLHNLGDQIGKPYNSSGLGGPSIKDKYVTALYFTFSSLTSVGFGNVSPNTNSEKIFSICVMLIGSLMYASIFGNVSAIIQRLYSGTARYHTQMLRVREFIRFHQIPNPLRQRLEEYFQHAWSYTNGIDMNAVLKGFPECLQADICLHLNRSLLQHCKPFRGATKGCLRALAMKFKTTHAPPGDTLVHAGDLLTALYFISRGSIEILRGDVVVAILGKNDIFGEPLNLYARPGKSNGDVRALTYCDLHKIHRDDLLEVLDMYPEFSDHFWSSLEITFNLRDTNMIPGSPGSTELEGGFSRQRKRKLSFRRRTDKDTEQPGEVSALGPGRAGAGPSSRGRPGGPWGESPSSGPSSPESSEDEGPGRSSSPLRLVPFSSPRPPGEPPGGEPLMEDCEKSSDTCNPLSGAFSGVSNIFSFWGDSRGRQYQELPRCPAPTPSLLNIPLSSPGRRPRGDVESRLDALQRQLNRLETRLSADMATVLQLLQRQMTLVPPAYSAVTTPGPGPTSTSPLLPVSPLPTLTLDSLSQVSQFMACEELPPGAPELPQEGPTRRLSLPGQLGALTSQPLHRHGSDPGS
Take `CCCc1cc(=O)oc2cc3oc(C)c(C)c3cc12`: the “hERG current change (%, negative = inhibition) at 1uM” value is reported as -4.03%.

Take `CSCc1ccc(C(=O)Nc2ccc(C(N)=O)cc2)cc1`: the “hERG current change (%, negative = inhibition) at 1uM” value was 8.09%.

Consider `O=S(=O)(NCC1CCCO1)c1ccc(-c2ccc(S(=O)(=O)NCC3CCCO3)cc2)cc1` (stereo not shown), for which the “hERG current change (%, negative = inhibition) at 1uM” value was 13.9%. Turning to `Cc1cc(C(=O)NNC(=O)COc2ccccc2Cl)n[nH]1`, the “hERG current change (%, negative = inhibition) at 1uM” value amounted to 8.75%.

As to `O=c1[nH]c(=S)[nH]c(O)c1N=Nc1ccc(OC(F)F)cc1`, the “hERG current change (%, negative = inhibition) at 1uM” value is recorded as 6.59%. For `COc1cnc(-c2ccccc2)c(-c2ccccc2)n1` the value was 9.41%; for `Cc1ccccc1N1C(=O)CSC1=C(C#N)C#N`, 8.65%. For `O=C(c1ccco1)N1CCN(c2ncnc3scc(-c4ccc(F)cc4)c23)CC1` the value was 5.15%; for `O=[N+]([O-])c1ccc(NC(=S)N2CCOCC2)cc1`, -6.23%. As for `CCCC(=O)Nc1nc2c(s1)COc1ccccc1-2`, the figure is 18.2%; as for `CCCS(=O)(=O)N1CCCC(C(=O)NCCCN2CCN(c3ccccc3F)CC2)C1` (stereo not shown), 2.15%; as for `O=c1cccc2n1CC1CC2CN(Cc2c(Cl)cccc2Cl)C1` (stereo not shown), -19%. In the case of `COC(=O)C1C(=O)OC(C)(C)C1C(C)C(=O)c1ccccc1` (stereo not shown), the “hERG current change (%, negative = inhibition) at 1uM” value was found to be 15.2%. As for `Cc1ccc(S(=O)(=O)N2CCN(c3ccc([N+](=O)[O-])c4cccnc34)CC2)cc1`, the “hERG current change (%, negative = inhibition) at 1uM” value was determined as 7.53%.

As to `CCOc1ccc(NCc2cc3cc(OC)ccc3[nH]c2=O)cc1`, the “hERG current change (%, negative = inhibition) at 1uM” value amounted to 5.07%. On to `COc1ccc(OC(=O)COc2cccc(C)c2)cc1`, for which the “hERG current change (%, negative = inhibition) at 1uM” value came to 12.9%. On to `Cc1oc2ccc(OCc3ccccc3F)cc2c1C(=O)O`, for which the “hERG current change (%, negative = inhibition) at 1uM” value is reported as 15.7%. As for `Cc1ccc(-c2nc(N3CCN(C)CC3)c3ccccc3n2)cc1.Cl`, the figure is 3.62%; as for `CCN(CC)CCOC(=O)c1c(C)oc2ccc(O)cc12.Cl`, -5.37%; as for `Cc1ccc(N(CC(N)=O)C2SC(=O)N(C)C2=O)cc1` (stereo not shown), 14.4%. As for `Cc1cc(C)c2cc(C#N)c(N3CCCC3)nc2c1`, the “hERG current change (%, negative = inhibition) at 1uM” value turned out to be 2.26%. As for `COc1ccc(-c2c(C(=O)O)nc3ccccc3c2C(=O)O)cc1`, the “hERG current change (%, negative = inhibition) at 1uM” value was determined as 5.08%. As for `Clc1cccc(Sc2ccc(-c3ccccn3)s2)c1`, the figure is 19.1%; as for `COc1ccccc1N1CC(C(=O)Nc2ccccc2N2CCCC2)CC1=O` (stereo not shown), 15.1%.

As to `CC(=O)Nc1nc(S(=O)(=O)c2ccc(C)cc2)c(Cl)s1`, the “hERG current change (%, negative = inhibition) at 1uM” value is -0.686%. Turning to `COC(=O)C1=C(C(=O)OC)[C@@H]2N(C)c3ccc(OC)cc3[C@@]23C[C@@H](C(=O)OC)N(S(=O)(=O)c2ccc(OC)cc2)C3=N1`, the “hERG current change (%, negative = inhibition) at 1uM” value stood at 6.8%. As to `Cc1cc(=O)oc(C)c1C(=O)Nc1ccccc1F`, the “hERG current change (%, negative = inhibition) at 1uM” value turned out to be 7.03%.

On to `CCOc1ccc(OCC)c(NS(=O)(=O)c2ccc3c(c2)CCN3C(=O)C2CCC2)c1`, for which the “hERG current change (%, negative = inhibition) at 1uM” value was found to be 0.173%.

Regarding `COC(=O)CSc1nc(N2CCOCC2)c2c(c1C#N)CC(C)(C)N(C)C2`, the “hERG current change (%, negative = inhibition) at 1uM” value is 8.17%. For `COc1ccc(OC)c(N(CC(=O)NCCc2ccc(OC)c(OC)c2)S(=O)(=O)c2ccccc2)c1` the value was 4.57%; for `O=C(c1cccc(N2C(=O)C3CC=CCC3C2=O)c1)N1CCCCCC1` (stereo not shown), -0.233%.

In the case of `COc1ccc(NC(=O)CN2CCN(CC(=O)Nc3ccc(OC)cc3)CC2)cc1`, the “hERG current change (%, negative = inhibition) at 1uM” value is listed as -85.6%. In the case of `Cc1nnsc1C(=O)Nc1cccc(Cl)c1Cl`, the “hERG current change (%, negative = inhibition) at 1uM” value is listed as -1.01%. For `Cc1ccc(-n2cc[nH]c2=S)cc1C` the value was 17.6%; for `O=C(N/C(=C/C=C\c1ccccc1)C(=O)N1CCOCC1)c1ccc(Br)cc1`, -19.1%.

Turning to `Cc1onc(-c2ccccc2Cl)c1C(=O)N1CCCCC1C(=O)O` (stereo not shown), the “hERG current change (%, negative = inhibition) at 1uM” value is recorded as 14.6%. Take `COc1ccc(-c2[nH]ncc2CNC(C)Cc2cccc(C)n2)cc1F` (stereo not shown): the “hERG current change (%, negative = inhibition) at 1uM” value turned out to be 15%.

For `COc1cc(NS(C)(=O)=O)ccc1Nc1c2ccccc2nc2ccccc12.Cl`, the “hERG current change (%, negative = inhibition) at 1uM” value is listed as -59.7%. For `O=C(O)c1cc(-c2cccc([N+](=O)[O-])c2)nc2ccccc12` the value was 0.161%. As for `Clc1ccc(CSc2ncnc3nc[nH]c23)cc1`, the figure is 9.25%; as for `CC(=O)NC(CC(=O)O)c1ccccc1` (stereo not shown), 12.8%; as for `CC(C(=O)Nc1ccc(C(=O)O)cc1)N1C(=O)c2ccccc2C1=O` (stereo not shown), 1.79%.

Consider `CN(CCc1ccccn1)C(=O)Nc1ccc(Cl)cc1`, for which the “hERG current change (%, negative = inhibition) at 1uM” value is 10.3%.
